# Results: PubChem BioAssay AID720708 (National Center for Advancing Translational Sciences (NCATS), 2013)
# In all, about 360,000 compounds went through this assay and about 660 (0.18%) were called active. Inconclusive means that the source gave no clear call. Such entries were picked first, then a sample of the others. The call rests on the fitted dose curve; in most records, active means well fitted inhibition curve with a large enough effect; inconclusive means small, poorly fitted or top-dose-only effect; inactive means no such curve, though single readings can be large or run the other way. Potencies of inconclusive entries are left out as doubtful fits.
# Molecular target: Rap guanine nucleotide exchange factor 4 (Homo sapiens) (UniProt Q8WZA2)
# UniProt Q8WZA2, sequence (Q8WZA2 whole entry, looked up): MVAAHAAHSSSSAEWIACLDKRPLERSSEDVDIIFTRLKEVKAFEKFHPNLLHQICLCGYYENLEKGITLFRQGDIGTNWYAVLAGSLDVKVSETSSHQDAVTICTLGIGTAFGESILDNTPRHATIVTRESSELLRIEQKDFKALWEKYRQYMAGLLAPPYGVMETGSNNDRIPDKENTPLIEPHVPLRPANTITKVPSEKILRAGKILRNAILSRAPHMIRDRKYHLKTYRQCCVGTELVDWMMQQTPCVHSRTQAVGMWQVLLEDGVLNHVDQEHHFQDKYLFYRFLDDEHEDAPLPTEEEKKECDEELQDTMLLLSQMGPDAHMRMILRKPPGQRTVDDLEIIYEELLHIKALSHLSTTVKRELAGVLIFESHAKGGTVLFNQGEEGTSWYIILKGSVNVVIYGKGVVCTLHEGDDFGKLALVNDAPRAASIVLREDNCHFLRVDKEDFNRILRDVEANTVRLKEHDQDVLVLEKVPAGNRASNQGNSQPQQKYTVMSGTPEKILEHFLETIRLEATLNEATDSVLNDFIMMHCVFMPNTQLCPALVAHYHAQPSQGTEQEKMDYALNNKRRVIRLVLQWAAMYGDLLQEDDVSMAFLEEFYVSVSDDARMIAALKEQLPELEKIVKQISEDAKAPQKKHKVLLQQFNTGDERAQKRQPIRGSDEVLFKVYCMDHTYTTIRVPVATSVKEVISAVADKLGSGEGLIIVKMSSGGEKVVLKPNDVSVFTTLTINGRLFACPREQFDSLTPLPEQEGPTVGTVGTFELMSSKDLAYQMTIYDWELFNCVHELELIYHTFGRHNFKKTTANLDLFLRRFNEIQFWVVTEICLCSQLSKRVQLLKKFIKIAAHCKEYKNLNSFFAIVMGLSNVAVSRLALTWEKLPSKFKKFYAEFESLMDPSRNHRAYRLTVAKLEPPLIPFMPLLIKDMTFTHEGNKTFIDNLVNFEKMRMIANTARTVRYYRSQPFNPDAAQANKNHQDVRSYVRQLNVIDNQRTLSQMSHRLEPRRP
# Assay: qHTS for Antagonist of cAMP-regulated guanine nucleotide exchange factor 2 (EPAC2): primary screen; further: nearly all actives have a fitted effect of over 45% in size
# Conditions: EPAC2 GEF exchange of Rap1B-BODIPY-GDP, fluorescence; series mostly up to 114 µM
# Potency means the concentration at half of the fitted maximal effect; tags describe the fitted curve by direction and shape.
row,Structure (SMILES),Potency
1,CCCN(CCC)Cc1c(C(=O)N/N=C/c2ccsc2)nnn1-c1nonc1N,"inconclusive [inhibitor, partial curve]"
2,O=C(N/N=C/c1c[nH]c2ccccc12)C1CC1(c1ccccc1)c1ccccc1 (stereo not drawn),"inconclusive [inhibitor, full curve, poor fit]"
3,Cc1cc(C)c(S(=O)(=O)N2CCc3ccccc32)c(C)c1,"inconclusive [inhibitor, full curve]"
4,CCN(CC(=O)Nc1ccc(OC)cc1)C(=O)CSCc1ccc(C)cc1,"inconclusive [inhibitor, single point]"
5,CCOc1ccc(CN(CCO)CCO)cc1C(=O)OC,"inconclusive [inhibitor, single point]"
6,CCOC(=O)C1=CCN(S(=O)(=O)c2ccccc2Cl)C1c1ccc(Cl)c(Cl)c1 (stereo not drawn),"inconclusive [inhibitor, single point]"
7,CCOC(=O)C1=C(C)NC(C)=C(C(=O)OC)C1c1cccc([N+](=O)[O-])c1 (stereo not drawn),"inconclusive [inhibitor, partial curve]"
8,O=C(CCc1ccc(S(=O)(=O)N2CCOCC2)cc1)N/N=C/c1ccc(F)cc1F,inactive
9,Cc1ccc(Cl)cc1-c1cc(C(=O)N2CCc3ccccc3C2)[nH]n1,inactive
10,CC(C)NC(=O)CSc1nc2sccc2c(=O)n1-c1ccccc1,inactive
11,O=S(=O)(c1ccc(F)cc1)N1CCN(CC(O)COCc2cccs2)CC1 (stereo not drawn),inactive
12,COCCN(CCOC)c1nc(-c2ccc(C)cc2)nc2ccccc12,"inconclusive [inhibitor, partial curve]"
13,CCOC(=O)C1=C(CN2CCN(C(=O)c3ccco3)CC2)NC(=O)NC1c1ccc(C)cc1 (stereo not drawn),"inconclusive [inhibitor, partial curve, poor fit]"
14,O=C(Nc1ccc(Oc2ccccc2)cc1)c1csc([C@@H]2C[C@H](O)[C@@H](CO)O2)n1,inactive
15,O=C(C1=C(O)C(=O)N(CCN2CCOCC2)C1c1cccc(Br)c1)c1cc2ccccc2o1 (stereo not drawn),"inconclusive [inhibitor, single point]"
16,Nc1[nH]c(C(=O)c2ccc(Br)cc2)c(-c2ccc(Br)cc2)c1C(=O)NCCc1c[nH]c2ccccc12,"inconclusive [inhibitor, full curve, poor fit]"
17,CC(C)c1cccc(-c2ccc3c(c2)S(=O)(=O)c2cccc(C(=O)O)c2C3=O)c1,"inconclusive [inhibitor, full curve, poor fit]"
18,C=CC(C)Sc1nc2c(c(=O)n(C)c(=O)n2C)n1Cc1ccccc1Cl (stereo not drawn),"inconclusive [inhibitor, full curve]"
19,O=C1Nc2cc(Cl)ccc2Nc2cscc21,"inconclusive [inhibitor, single point]"
20,COc1ccc(CN(C)CC(O)COC(c2ccccc2)c2ccccc2)c(OC)c1OC (stereo not drawn),inactive
21,O=C1Cc2ccccc2C(=O)N1,"inconclusive [inhibitor, partial curve]"
22,O=C(N/N=C/c1cc([N+](=O)[O-])ccc1Cl)c1cnccn1,inactive

row,Structure (SMILES),Potency
1,Clc1cc(Br)ccc1NCc1cccnc1,"inconclusive [inhibitor, partial curve]"
2,O=c1o[nH]c(-c2ccccc2)c1C=Nc1ccc(Cl)cc1,"inconclusive [inhibitor, partial curve]"
3,O=C(NCCc1ccc(Cl)cc1)c1ccc2ccccc2n1,"inconclusive [inhibitor, partial curve]"
4,CCOc1ccc(OCC)c(NC(=O)C2CCN(S(=O)(=O)c3ccc4c(c3)CC(C)N4C(C)=O)CC2)c1 (stereo not drawn),"inconclusive [inhibitor, partial curve]"
5,COc1cccc(C(C)(O)c2nc(-c3ccc(F)c(Cl)c3)cs2)c1 (stereo not drawn),"inconclusive [inhibitor, single point]"
6,COc1cccc(C(C)(O)c2nc(-c3cc(F)cc(F)c3)cs2)c1 (stereo not drawn),"inconclusive [inhibitor, partial curve]"
7,CCc1nc2ccc(C(=O)NCC3CCCCC3)cn2c1N(C)Cc1nccs1,inactive
8,C/C(=N\NC(N)=S)c1ccc2c(c1)OCCO2,inactive
9,CO/N=C(\c1ccccc1)c1cccnc1,"inconclusive [inhibitor, single point]"
10,NC(=O)C1CCN(Cc2ccc(OCc3ccccc3)cc2)CC1,inactive
11,O=C(CCc1ccccc1Cl)Nc1cc(S(=O)(=O)N2CCOCC2)ccc1N1CCCC1,"inconclusive [inhibitor, single point]"
12,CCOc1cc(C2NC(=S)NC(C)=C2C(=O)Nc2ccc(OC)cc2)ccc1O (stereo not drawn),"inconclusive [inhibitor, single point]"
13,O=C(CN1C(=O)C2CC=CCC2C1=O)Nc1nc2ccc(F)cc2s1 (stereo not drawn),"inconclusive [inhibitor, single point]"
14,COc1ccc(OCCNC(=O)C2(C)CCN2Cc2ccc(SC)cc2)cc1 (stereo not drawn),"inconclusive [inhibitor, partial curve]"
15,COc1cccc(NC(=O)CCC(=O)Nc2cc(OC)c(NC(=O)c3cccs3)cc2OC)c1,"inconclusive [inhibitor, single point]"
16,COc1ccc(CN(C)CC(=O)Nc2ccccc2-c2ccccc2)c(OC)c1,"inconclusive [inhibitor, partial curve]"
17,COc1ccccc1C(=O)COC(=O)c1ccccc1O,inactive
18,COc1ccc(/C=C(\NC(=O)c2ccc([N+](=O)[O-])cc2)C(=O)NCCCN2CCOCC2)cc1,inactive
19,COc1ccc(/C=C2\SC(=S)N(NS(=O)(=O)c3ccc(C)cc3)C2=O)c(OC)c1,inactive
20,O=c1[nH][nH]c(-c2ccccc2O)c1C(C[N+](=O)[O-])c1ccc(Cl)cc1Cl (stereo not drawn),"inconclusive [inhibitor, partial curve]"
21,COC(=O)C1OC2(OC1C(=O)OC)c1ccccc1-c1ccccc12 (stereo not drawn),"inconclusive [inhibitor, partial curve]"
